# Measurements as given in the supplement of paper PMC9446081.
# Among all 39,000 compounds or so, about 220 (0.56%) showed activity. The list shows a part of the results.
# System: Escherichia coli K-12 BW25113
# Assay: relative growth (OD600 normalised to plate interquartile mean) (fraction); higher = less growth inhibition, active = 0.2 or less
# Conditions: 50 µM; LB; incubation time: overnight (16-24 h)
# 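Also: static incubation at 37 °C against the wild-type strain, values averaged over two biological replicates.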
row,Compound,relative growth
1,COc1ccc2c3c([nH]c2c1)[C@H](CO)N(C[C@]13CCN(CC1)C(=O)NC(C)C)C(=O)CN1CCOCC1,inactive: 0.988
2,c1ccc(NC2CCCCC2)nc1,inactive: 0.906
3,C=CCOC(=O)[C@H]1[C@@H]2C(=O)O[C@@H](c3ccccc3)[C@@H](c3ccccc3)N2[C@@H](c2ccc(OCCOC(=O)[C@H]3C[C@H]4C(=O)NCC(=O)N4[C@H]3c3ccc(O)cc3)cc2)[C@]12C(=O)Nc1ccccc12,inactive: 1.04
4,C[C@H](CO)N1C[C@H](C)[C@H](CN(C)Cc2ccc(-c3ccccc3)cc2)Oc2ccc(NS(=O)(=O)c3ccc(Cl)cc3)cc2C1=O,inactive: 1.05
5,CN(C)CC#Cc1ccc([C@@H]2[C@H]3CN(C(=O)CN(C)C)CC(=O)N3[C@H]2CO)cc1,inactive: 0.991
6,NC(=O)[C@H]1CCCCN1,inactive: 0.997
7,CCCCN(CCCC)CCCC.Nc1ncnc2c1ncn2[C@H]1O[C@@H](COP(=O)(O)O)[C@@H](O)[C@@H]1O,inactive: 0.98
8,O=C(Nc1ccc(-c2nc3cc(NC(=O)c4ccccc4Cl)ccc3o2)cc1)c1ccccc1Cl,inactive: 1
9,COc1ccc(S(=O)(=O)N(C)C[C@@H]2Oc3c(NC(=O)c4ccncc4)cccc3C(=O)N([C@H](C)CO)C[C@@H]2C)cc1,inactive: 0.999
10,C[C@H]1CN([C@@H](C)CO)C(=O)c2cc(NC(=O)C3CC3)ccc2O[C@H]1CN(C)Cc1ccc2c(c1)OCO2,inactive: 0.978
11,O=C(O)c1cc2sccc2s1,inactive: 0.958
12,CO[C@@H]1CN(C)C(=O)c2ccc(NS(=O)(=O)c3cn(C)cn3)cc2OC[C@H](C)N(CC2CC2)C[C@H]1C,inactive: 0.969
13,C[C@@H]1CN([C@H](C)CO)C(=O)Cc2cc(NC(=O)Cn3cnnn3)ccc2O[C@H]1CN(C)S(=O)(=O)c1cccs1,inactive: 1.01
14,C[C@H]1CCCCO[C@@H](CN(C)C(=O)Cc2ccccc2)[C@@H](C)CN([C@@H](C)CO)C(=O)c2cc(NC(=O)Cc3ccccc3)ccc2O1,inactive: 1
15,COc1ccc(S(=O)(=O)Nc2ccc3c(c2)C(=O)N([C@H](C)CO)C[C@H](C)[C@@H](CN(C)C(=O)Nc2cccc4ccccc24)OCCCC[C@H](C)O3)cc1,inactive: 1
16,C[C@@H]1CN([C@H](C)CO)S(=O)(=O)c2ccc(-c3cncnc3)cc2O[C@H]1CN(C)C(=O)CN(C)C,inactive: 1.01
17,CCCCN1CCCCC1C(=O)Nc1c(C)cccc1C.Cl (stereo unspecified),inactive: 1.09
18,COCC#Cc1cnc2c(c1)C(=O)N([C@@H](C)CO)C[C@H](C)[C@H](CN(C)C(=O)CN1CCOCC1)O2,inactive: 0.995
19,COc1ccc(COCC23Oc4ccccc4[C@H]([C@H]2COC(=O)c2ccccc2)n2c(c4ccccc4c(-c4ccccc4)c2=O)N3C)cc1,inactive: 1.03
20,C[C@H](CO)N1C[C@H](C)[C@H](CN(C)CC2CCCCC2)Oc2ccc(NC(=O)CCN3CCOCC3)cc2C1=O,inactive: 0.948
21,N#C[C@H](N)c1ccc(Cl)cc1,inactive: 0.965

row,Compound,relative growth
1,COc1ccc(NC(=O)N(C)C[C@H]2OCCCC[C@H](C)Oc3ccc(NC(=O)c4ccncc4)cc3C(=O)N([C@@H](C)CO)C[C@H]2C)cc1,inactive: 1.04
2,C[C@H]1CN([C@@H](C)CO)C(=O)Cc2cc(NS(=O)(=O)c3ccc(F)cc3)ccc2O[C@H]1CN(C)S(=O)(=O)c1cccs1,inactive: 1
3,C[C@@H]1CN([C@@H](C)CO)C(=O)c2cc(-c3ccc(C(=O)N(C)C)cc3)cnc2O[C@@H]1CN(C)C(=O)C1CC1,inactive: 1.01
4,Cc1noc(C)c1NC(=O)Nc1ccc2c(c1)C(=O)N([C@@H](C)CO)C[C@@H](C)[C@@H](CN(C)C(=O)Nc1ccc(C(F)(F)F)cc1)OCCCC[C@@H](C)O2,inactive: 1.05
5,CC(C)NC(=O)N(C)C[C@@H]1Oc2ccc(NS(=O)(=O)c3ccc(F)cc3)cc2C(=O)N([C@@H](C)CO)C[C@H]1C,inactive: 1.01
6,Cc1ccc(S(=O)(=O)Nc2ccc3c(c2)C(=O)N([C@@H](C)CO)C[C@H](C)[C@@H](CN(C)CC2CCCCC2)OCCCC[C@H](C)O3)cc1,inactive: 0.965
7,C[C@@H]1CN([C@@H](C)CO)C(=O)c2cc(NC(=O)Nc3ccc(C(F)(F)F)cc3)ccc2O[C@H]1CN(C)Cc1ccccc1,inactive: 0.921
8,C[C@H]1CN([C@@H](C)CO)C(=O)c2cc(NS(=O)(=O)c3cn(C)cn3)ccc2O[C@H]1CN(C)Cc1ccc(C(=O)Nc2ccccc2N)cc1,inactive: 1.04
9,C[C@@H]1CN([C@H](C)CO)C(=O)c2cc(NS(=O)(=O)c3cn(C)cn3)ccc2O[C@@H](C)CCCCO[C@@H]1CN(C)S(=O)(=O)c1cn(C)cn1,inactive: 0.991
10,O=C([O-])C(O)C(O)C(O)C(O)CO.[Na+] (stereo unspecified),inactive: 0.889
11,COc1ccc(S(=O)(=O)N(C)C[C@H]2Oc3c(NC(=O)Nc4cccc5ccccc45)cccc3C(=O)N([C@@H](C)CO)C[C@@H]2C)cc1,inactive: 1.04
12,C[C@@H]1CN([C@@H](C)CO)C(=O)c2cc(NC(=O)NC3CCCCC3)ccc2O[C@@H]1CN(C)S(=O)(=O)c1cn(C)cn1,inactive: 0.993
13,CCCN(C)C[C@H]1Oc2cc(C#Cc3ccc(OC)cc3)ccc2S(=O)(=O)N([C@H](C)CO)C[C@H]1C,inactive: 0.984
14,C[C@H](CO)N1C[C@H](C)[C@@H](CN(C)Cc2ccccc2C(F)(F)F)OCc2ccccc2-c2c(n(C)c3ccccc23)C1=O,inactive: 1
15,C[C@H]1CN([C@@H](C)CO)C(=O)c2cc(NS(=O)(=O)c3ccccc3)ccc2O[C@@H]1CN(C)S(=O)(=O)c1cn(C)cn1,inactive: 1.01
16,Cc1noc(C)c1S(=O)(=O)N(C)C[C@@H]1OCCCC[C@H](C)Oc2ccc(N(C)C)cc2C(=O)N([C@H](C)CO)C[C@H]1C,inactive: 0.985
17,COc1ccc(S(=O)(=O)N2C[C@H](O)COC[C@@H]3O[C@@H](CC(=O)NCc4ccc(Cl)c(Cl)c4)CC[C@H]32)cc1,inactive: 0.981
18,C[C@@H]1CN([C@H](C)CO)C(=O)c2cccc(NS(C)(=O)=O)c2O[C@H]1CN(C)Cc1ccc(C(F)(F)F)cc1,inactive: 0.973
19,Cc1noc(C)c1S(=O)(=O)N(C)C[C@H]1Oc2c(NS(=O)(=O)c3cn(C)cn3)cccc2C(=O)N([C@@H](C)CO)C[C@H]1C,inactive: 1.02
20,C[C@H]1CN([C@@H](C)CO)C(=O)c2cc(NS(=O)(=O)c3ccc(Cl)cc3)ccc2O[C@H]1CN(C)Cc1ccc(-c2ccccc2)cc1,inactive: 0.98
21,C[C@H](CO)N1C[C@H](C)[C@@H](CN(C)C(=O)Nc2ccc3c(c2)OCO3)Oc2ccc(NS(=O)(=O)c3cn(C)cn3)cc2C1=O,inactive: 0.921

row,Compound,relative growth
1,C[C@@H]1CN([C@@H](C)CO)C(=O)c2cc(NC(=O)Cn3cnnn3)ccc2O[C@H]1CN(C)Cc1ccc2c(c1)OCO2,inactive: 0.996
2,O=CN[C@H](Cc1ccccc1)C(=O)O,inactive: 1
3,Cc1noc(C)c1NC(=O)Nc1ccc2c(c1)C(=O)N([C@@H](C)CO)C[C@H](C)[C@H](CN(C)Cc1ccc(Cl)c(Cl)c1)OCCCC[C@@H](C)O2,inactive: 1.01
4,C[C@@H]1CN([C@@H](C)CO)S(=O)(=O)c2ccc(Br)cc2O[C@H]1CN(C)Cc1ccc(-c2ccccc2)cc1,inactive: 1.02
5,Cc1cnc(C(=O)N2C[C@@H]3COC[C@@]3(CNS(C)(=O)=O)C2)cn1,inactive: 1
6,C[C@H]1CN([C@@H](C)CO)C(=O)c2cccc(NC(=O)Nc3ccc(C(F)(F)F)cc3)c2O[C@@H]1CN(C)Cc1ccc(Oc2ccccc2)cc1,inactive: 0.981
7,O=C(CCCCCCC(=O)N/N=C/c1cc(I)cc(I)c1O)NO,inactive: 0.835
8,CC(=O)OCN1CCN(COC(C)=O)C1=O,inactive: 1
9,COc1ccc(N2CCN(c3nc(NCCO)nc(N4CCOCC4)n3)CC2)cc1,inactive: 0.994
10,CC(C)NC(=O)Nc1ccc2c(c1)CC(=O)N([C@H](C)CO)C[C@H](C)[C@H](CN(C)Cc1ccc(-c3ccccc3)cc1)O2,inactive: 0.985
11,O=C(C[C@@H]1C[C@H]2c3cc(NC(=O)Nc4ccccc4F)ccc3O[C@H]2[C@@H](CO)O1)NCc1ccc(Oc2ccccc2)cc1,inactive: 1.01
12,C[C@H](CO)N1C[C@H](C)[C@H](CN(C)S(=O)(=O)c2cccs2)Oc2ccc(NS(=O)(=O)c3ccc(F)cc3)cc2C1=O,inactive: 1.01
13,C[C@H]1CN([C@@H](C)CO)C(=O)c2cccc(NS(=O)(=O)c3ccc(F)cc3)c2O[C@@H]1CN(C)S(=O)(=O)c1cn(C)cn1,inactive: 1.01
14,Cn1ncc2c(=O)nc[nH]c21,inactive: 0.962
15,CC(C)NC(=O)Nc1ccc2c(c1)C(=O)N([C@H](C)CO)C[C@H](C)[C@H](CN(C)Cc1ccc(C(=O)Nc3ccccc3N)cc1)OCCCC[C@@H](C)O2,inactive: 0.97
16,C[C@H]1CN([C@@H](C)CO)C(=O)c2cccc(NC(=O)c3ccc(-c4nccs4)cc3)c2O[C@H]1CN(C)Cc1ccc(Oc2ccccc2)cc1,inactive: 1
17,CO[C@@H]1CN(C)C(=O)c2ccc(NS(=O)(=O)c3ccccc3C)cc2OC[C@H](C)N(S(C)(=O)=O)C[C@H]1C,inactive: 1
18,C[C@@H]1CN([C@@H](C)CO)S(=O)(=O)c2ccc(-c3ccncc3)cc2O[C@@H]1CN(C)S(=O)(=O)c1ccccc1F,inactive: 0.997
19,C[C@@H]1CN([C@H](C)CO)C(=O)c2cc(NS(=O)(=O)c3ccc(Cl)cc3)ccc2O[C@@H](C)CCCCO[C@@H]1CN(C)C(=O)c1ccccc1,inactive: 1.01
